From paper PMC9106588 come the findings set out here.

By UniProt entry, the sequences of proteins in these tests, tags left out. Where a name states a change or a piece, a line headed by the entry shows the natural chain unless it says otherwise.
UniProt Q8IWT3: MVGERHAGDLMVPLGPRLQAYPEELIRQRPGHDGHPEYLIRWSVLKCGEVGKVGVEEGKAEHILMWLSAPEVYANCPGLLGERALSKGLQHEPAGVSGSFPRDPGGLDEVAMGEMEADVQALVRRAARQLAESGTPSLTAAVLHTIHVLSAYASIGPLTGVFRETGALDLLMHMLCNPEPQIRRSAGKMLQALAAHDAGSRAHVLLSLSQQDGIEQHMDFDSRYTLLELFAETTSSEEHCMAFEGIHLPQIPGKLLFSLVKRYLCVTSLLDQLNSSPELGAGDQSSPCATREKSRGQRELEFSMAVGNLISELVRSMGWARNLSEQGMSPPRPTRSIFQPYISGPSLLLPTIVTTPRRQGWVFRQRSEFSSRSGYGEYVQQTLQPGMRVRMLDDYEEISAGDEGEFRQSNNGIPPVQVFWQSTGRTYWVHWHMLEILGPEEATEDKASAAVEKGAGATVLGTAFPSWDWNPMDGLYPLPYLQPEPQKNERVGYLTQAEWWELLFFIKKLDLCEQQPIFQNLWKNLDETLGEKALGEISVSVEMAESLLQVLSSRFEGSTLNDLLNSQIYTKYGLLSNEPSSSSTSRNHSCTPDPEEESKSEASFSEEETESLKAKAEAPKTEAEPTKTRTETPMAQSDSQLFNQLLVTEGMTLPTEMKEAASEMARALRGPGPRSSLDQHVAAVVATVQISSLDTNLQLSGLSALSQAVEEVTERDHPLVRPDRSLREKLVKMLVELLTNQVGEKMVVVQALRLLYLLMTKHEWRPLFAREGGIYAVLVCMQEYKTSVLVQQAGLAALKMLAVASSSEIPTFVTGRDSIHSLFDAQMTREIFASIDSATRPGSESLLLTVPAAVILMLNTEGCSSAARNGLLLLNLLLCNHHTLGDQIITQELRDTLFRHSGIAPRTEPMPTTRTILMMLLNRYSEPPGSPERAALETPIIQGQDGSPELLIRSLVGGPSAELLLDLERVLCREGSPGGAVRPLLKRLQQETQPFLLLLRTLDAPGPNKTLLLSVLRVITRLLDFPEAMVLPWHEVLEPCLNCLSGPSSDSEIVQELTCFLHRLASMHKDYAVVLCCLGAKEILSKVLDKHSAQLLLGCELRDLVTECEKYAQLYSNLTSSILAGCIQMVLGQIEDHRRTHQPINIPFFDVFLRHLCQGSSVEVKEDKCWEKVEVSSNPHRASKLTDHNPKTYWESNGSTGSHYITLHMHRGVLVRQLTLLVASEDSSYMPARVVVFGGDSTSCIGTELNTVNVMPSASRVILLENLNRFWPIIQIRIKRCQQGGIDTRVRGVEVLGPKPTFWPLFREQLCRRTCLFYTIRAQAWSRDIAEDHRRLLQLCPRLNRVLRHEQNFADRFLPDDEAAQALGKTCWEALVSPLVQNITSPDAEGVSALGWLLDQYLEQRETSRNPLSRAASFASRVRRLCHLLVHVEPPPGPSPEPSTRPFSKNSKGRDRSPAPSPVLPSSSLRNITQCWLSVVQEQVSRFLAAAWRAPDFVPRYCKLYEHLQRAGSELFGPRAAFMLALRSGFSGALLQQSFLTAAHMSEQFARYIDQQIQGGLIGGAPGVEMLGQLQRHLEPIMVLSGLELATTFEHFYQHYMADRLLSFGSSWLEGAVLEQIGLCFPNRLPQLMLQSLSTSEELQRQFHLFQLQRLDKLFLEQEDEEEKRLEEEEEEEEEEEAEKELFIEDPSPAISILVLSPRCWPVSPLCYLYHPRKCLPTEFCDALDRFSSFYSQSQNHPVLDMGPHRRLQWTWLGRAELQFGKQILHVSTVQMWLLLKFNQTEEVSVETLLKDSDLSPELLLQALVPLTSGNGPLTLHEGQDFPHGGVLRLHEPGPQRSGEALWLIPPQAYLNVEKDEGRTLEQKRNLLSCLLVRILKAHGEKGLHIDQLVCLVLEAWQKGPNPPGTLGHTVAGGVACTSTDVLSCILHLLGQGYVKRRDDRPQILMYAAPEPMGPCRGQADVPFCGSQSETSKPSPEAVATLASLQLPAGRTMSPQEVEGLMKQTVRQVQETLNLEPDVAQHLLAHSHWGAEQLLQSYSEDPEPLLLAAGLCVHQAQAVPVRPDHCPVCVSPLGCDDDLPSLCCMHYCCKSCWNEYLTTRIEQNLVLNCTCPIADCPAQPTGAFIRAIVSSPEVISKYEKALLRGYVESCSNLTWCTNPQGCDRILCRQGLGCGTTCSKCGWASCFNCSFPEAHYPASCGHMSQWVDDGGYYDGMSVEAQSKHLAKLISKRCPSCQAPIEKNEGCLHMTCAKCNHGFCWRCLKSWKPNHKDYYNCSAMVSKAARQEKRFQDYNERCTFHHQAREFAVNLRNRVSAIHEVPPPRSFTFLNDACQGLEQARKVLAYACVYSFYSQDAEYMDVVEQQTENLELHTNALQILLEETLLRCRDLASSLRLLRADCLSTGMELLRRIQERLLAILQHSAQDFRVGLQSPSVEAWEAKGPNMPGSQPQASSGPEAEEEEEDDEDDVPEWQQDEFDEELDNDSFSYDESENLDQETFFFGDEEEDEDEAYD
UniProt P06493: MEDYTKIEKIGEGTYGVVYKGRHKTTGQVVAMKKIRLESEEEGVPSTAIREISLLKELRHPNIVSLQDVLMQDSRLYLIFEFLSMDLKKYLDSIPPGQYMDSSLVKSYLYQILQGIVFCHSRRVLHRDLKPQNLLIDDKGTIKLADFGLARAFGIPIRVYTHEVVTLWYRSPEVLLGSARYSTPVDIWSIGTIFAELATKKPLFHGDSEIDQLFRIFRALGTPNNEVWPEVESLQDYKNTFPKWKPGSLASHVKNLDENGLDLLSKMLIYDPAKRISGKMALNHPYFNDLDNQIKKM
UniProt P20248: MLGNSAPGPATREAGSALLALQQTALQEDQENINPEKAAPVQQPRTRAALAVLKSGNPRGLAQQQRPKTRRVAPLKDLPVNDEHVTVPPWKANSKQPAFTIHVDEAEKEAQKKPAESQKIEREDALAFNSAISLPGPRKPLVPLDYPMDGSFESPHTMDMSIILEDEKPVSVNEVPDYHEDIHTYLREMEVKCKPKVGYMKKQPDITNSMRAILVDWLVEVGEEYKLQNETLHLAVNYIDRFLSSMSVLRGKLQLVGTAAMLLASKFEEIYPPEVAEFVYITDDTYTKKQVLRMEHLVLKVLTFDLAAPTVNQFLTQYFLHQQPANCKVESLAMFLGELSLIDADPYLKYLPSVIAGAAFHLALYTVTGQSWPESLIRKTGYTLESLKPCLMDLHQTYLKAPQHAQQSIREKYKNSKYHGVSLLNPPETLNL

Experiment [1] addresses T1, EGFP-tagged wild-type KIND2 (EGFP–KIND2-WT) (mouse) (UniProt Q8CIB5).
T1 sequence: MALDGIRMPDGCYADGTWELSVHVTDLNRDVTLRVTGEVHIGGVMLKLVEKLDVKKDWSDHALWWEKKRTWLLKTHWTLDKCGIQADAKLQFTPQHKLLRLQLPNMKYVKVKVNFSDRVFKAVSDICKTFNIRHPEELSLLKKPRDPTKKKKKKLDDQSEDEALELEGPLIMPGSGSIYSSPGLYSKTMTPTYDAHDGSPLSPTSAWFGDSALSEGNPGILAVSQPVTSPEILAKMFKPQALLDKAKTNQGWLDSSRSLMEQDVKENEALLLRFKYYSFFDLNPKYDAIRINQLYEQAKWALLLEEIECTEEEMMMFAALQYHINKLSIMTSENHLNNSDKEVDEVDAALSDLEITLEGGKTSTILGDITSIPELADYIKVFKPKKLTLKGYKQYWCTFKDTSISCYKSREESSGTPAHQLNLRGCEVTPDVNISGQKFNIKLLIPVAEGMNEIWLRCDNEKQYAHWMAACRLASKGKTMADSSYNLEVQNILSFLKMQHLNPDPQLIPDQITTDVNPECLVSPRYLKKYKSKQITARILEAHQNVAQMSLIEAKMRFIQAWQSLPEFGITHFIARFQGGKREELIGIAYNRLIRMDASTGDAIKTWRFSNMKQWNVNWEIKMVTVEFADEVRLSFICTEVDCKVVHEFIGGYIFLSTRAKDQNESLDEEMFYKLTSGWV
Kind of experiment: co-IP; GFP nanotrap beads (Chromotek), 3 h at 4 °C, lysates of STLC-arrested mitotic HeLa cells expressing EGFP–KIND2; 10 mM Tris-HCl, 150 mM NaCl, 0.5 mM EDTA, 0.5% NP-40; WB for CDK1, cyclin B1 and cyclin A2.

Experiment [2] addresses T1, EGFP-tagged wild-type KIND2 (EGFP–KIND2-WT) (mouse). Kind of experiment: condition: only untreated (not STLC-arrested) HeLa cells; co-IP; GFP nanotrap beads (Chromotek), 3 h at 4 °C, lysates of untreated HeLa cells expressing EGFP–KIND2; 10 mM Tris-HCl, 150 mM NaCl, 0.5 mM EDTA, 0.5% NP-40; WB for CDK1, cyclin B1 and cyclin A2.
Experiment [3] has the same target. The experiment in a line: co-IP; GFP nanotrap beads (Chromotek), 3 h at 4 °C, lysates of untreated HeLa cells expressing EGFP–KIND2; 10 mM Tris-HCl, 150 mM NaCl, 0.5 mM EDTA, 0.5% NP-40; WB for CDK1, cyclin B1 and cyclin A2.
Experiment [4] deals with cullin 9 (CUL9) (human (endogenous in HeLa)) (UniProt Q8IWT3). The experiment in a line: co-IP; anti-CUL9 antibody overnight at 4 °C, protein A/G agarose beads, lysates of untreated and STLC-arrested mitotic HeLa cells (also cells expressing EGFP-tagged KIND2 constructs); WB for CUL9, FBXL10, KIND2 or GFP.

No constants are given. Whether binding was seen depends on the method and setting. Binding seen in cells or lysates may run through a third protein. Some entries that bind do so weakly or less than the wild type. For some assays here: Tags and fused reporters may be left off the sequences shown.

With “CDK1–cyclin B1 complex (from UniProt P06493 1-297; P14635 1-433)”, the figures for the binding result in experiment [1] and in experiment [2] were “binds” and “no binding”, respectively.
As for cyclin A2 (from UniProt P20248 1-432), the binding entry in experiment [3] and in experiment [1] was “no binding” each time.

B1: FBXL10 (protein, UniProt Q8NHM5 1-1336)
chain: MAGPQMGGSAEDHPPRKRHAAEKQKKKTVIYTKCFEFESATQRPIDRQRYDENEDLSDVEEIVSVRGFSLEEKLRSQLYQGDFVHAMEGKDFNYEYVQREALRVPLIFREKDGLGIKMPDPDFTVRDVKLLVGSRRLVDVMDVNTQKGTEMSMSQFVRYYETPEAQRDKLYNVISLEFSHTKLEHLVKRPTVVDLVDWVDNMWPQHLKEKQTEATNAIAEMKYPKVKKYCLMSVKGCFTDFHIDFGGTSVWYHVFRGGKIFWLIPPTLHNLALYEEWVLSGKQSDIFLGDRVERCQRIELKQGYTFFIPSGWIHAVYTPVDSLVFGGNILHSFNVPMQLRIYEIEDRTRVQPKFRYPFYYEMCWYVLERYVYCVTQRSHLTQEYQRESMLIDAPRKPSIDGFSSDSWLEMEEEACDQQPQEEEEKDEEGEGRDRAPKPPTDGSTSPTSTPSEDQEALGKKPKAPALRFLKRTLSNESEESVKSTTLAVDYPKTPTGSPATEVSAKWTHLTEFELKGLKALVEKLESLPENKKCVPEGIEDPQALLEGVKNVLKEHADDDPSLAITGVPVVTWPKKTPKNRAVGRPKGKLGPASAVKLAANRTTAGARRRRTRCRKCEACLRTECGECHFCKDMKKFGGPGRMKQSCIMRQCIAPVLPHTAVCLVCGEAGKEDTVEEEEGKFNLMLMECSICNEIIHPGCLKIKESEGVVNDELPNCWECPKCNHAGKTGKQKRGPGFKYASNLPGSLLKEQKMNRDNKEGQEPAKRRSECEEAPRRRSDEHSKKVPPDGLLRRKSDDVHLRKKRKYEKPQELSGRKRASSLQTSPGSSSHLSPRPPLGSSLSPWWRSSLTYFQQQLKPGKEDKLFRKKRRSWKNAEDRMALANKPLRRFKQEPEDELPEAPPKTRESDHSRSSSPTAGPSTEGAEGPEEKKKVKMRRKRRLPNKELSRELSKELNHEIQRTENSLANENQQPIKSEPESEGEEPKRPPGICERPHRFSKGLNGTPRELRHQLGPSLRSPPRVISRPPPSVSPPKCIQMERHVIRPPPISPPPDSLPLDDGAAHVMHREVWMAVFSYLSHQDLCVCMRVCRTWNRWCCDKRLWTRIDLNHCKSITPLMLSGIIRRQPVSLDLSWTNISKKQLSWLINRLPGLRDLVLSGCSWIAVSALCSSSCPLLRTLDVQWVEGLKDAQMRDLLSPPTDNRPGQMDNRSKLRNIVELRLAGLDITDASLRLIIRHMPLLSKLHLSYCNHVTDQSINLLTAVGTTTRDSLTEINLSDCNKVTDQCLSFFKRCGNICHIDLRYCKQVTKEGCEQFIAEMSVSVQFGQVEEKLLQKLS
Turning to B1, in experiment [4], the binding entry is listed as “binds”.
